From publication PMC6959191 (Haematologica, 2019)

Biological target: NF-κB-inducing kinase (human (endogenous in OPM-2 and …, UniProt Q99558 1-947))
Assay: co-IP

Sequence of UniProt Q99558 (Q99558 whole entry): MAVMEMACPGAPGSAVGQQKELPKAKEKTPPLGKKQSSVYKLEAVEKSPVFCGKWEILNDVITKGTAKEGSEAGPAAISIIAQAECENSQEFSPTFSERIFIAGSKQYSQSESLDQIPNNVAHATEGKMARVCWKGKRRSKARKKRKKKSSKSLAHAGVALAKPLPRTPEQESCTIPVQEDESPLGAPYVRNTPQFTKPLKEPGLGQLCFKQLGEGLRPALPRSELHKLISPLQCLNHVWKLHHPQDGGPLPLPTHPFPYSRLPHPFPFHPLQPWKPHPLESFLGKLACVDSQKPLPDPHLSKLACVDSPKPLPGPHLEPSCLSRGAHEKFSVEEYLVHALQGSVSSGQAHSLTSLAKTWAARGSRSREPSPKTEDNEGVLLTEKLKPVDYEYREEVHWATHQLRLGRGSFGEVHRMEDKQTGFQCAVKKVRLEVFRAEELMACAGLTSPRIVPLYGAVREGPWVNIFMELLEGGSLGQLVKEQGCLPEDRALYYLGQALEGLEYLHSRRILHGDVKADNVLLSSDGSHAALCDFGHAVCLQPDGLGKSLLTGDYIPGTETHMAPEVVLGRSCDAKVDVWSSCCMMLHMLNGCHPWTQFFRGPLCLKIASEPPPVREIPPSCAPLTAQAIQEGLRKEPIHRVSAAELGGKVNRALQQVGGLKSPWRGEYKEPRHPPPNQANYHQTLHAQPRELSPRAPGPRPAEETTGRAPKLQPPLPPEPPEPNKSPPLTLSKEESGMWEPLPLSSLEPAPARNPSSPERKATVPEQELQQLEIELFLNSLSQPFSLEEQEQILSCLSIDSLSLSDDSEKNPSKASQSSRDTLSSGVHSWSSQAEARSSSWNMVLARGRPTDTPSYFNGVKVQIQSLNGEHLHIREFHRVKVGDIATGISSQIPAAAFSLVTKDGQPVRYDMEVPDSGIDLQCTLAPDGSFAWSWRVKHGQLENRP

B1: c-Abl tyrosine kinase (natural protein)
chain: MLEICLKLVGCKSKKGLSSSSSCYLEEALQRPVASDFEPQGLSEAARWNSKENLLAGPSE[about 60 residues left out here]LEKHSWYHGPVSRNAAEYLLSSGINGSFLVRESESSPGQRSISLRYEGRVYHYRINTASDGKLYVSSESRFNTLAELVHHHSTVADGLITTLHYPAPKRNKPTVYGVSPNYDKWEMERTDITMKHKLGGGQYGEVYEGVWKKYSLTVAVKTLKEDTMEVEEFLKEAAVMKEIKHPNLVQLLGVCTREPPFYIITEFMTYGNLLDYLRECNRQEVNAVVLLYMATQISSAMEYLEKKNFIHRDLAARNCLVGENHLVKVADFGLSRLMTGDTYTAHAGAKFPIKWTAPESLAYNKFSIKSDVWAFGVLLWEIATYGMSPYPGIDLSQVYELLEKDYRMERPEGCPEKVYELMRACWQWNPSDRPSFAEIHQAFETMFQESSISDEVEKELGKQGVRGAVSTLLQAPELPTKTRTSRRAAEHRDTTDVPEMPHSKGQGESDPLDHEPAVSPLLPRKERGPPEGGLNEDERLLPKDKKTNLFSALIKKKKKTAPTPPKRSSSFREMDGQPERRGAGEEEGRDISNGALAFTPLDTADPAKSPKPSNGAGVPNGALRESGGSGFRSPHLWKKSSTLTSSRLATGEEEGGGSSSKRFLRSCSASCVPHGAKDTEWRSVTLPRDLQSTGRQFDSSTFGGHKSEKPALPRKRAGENRSDQVTRGTVTPPPRLVKKNEEAADEVFKDIMESSPGSSPPNLTPKPLRRQVTVAPASGLPHKEEAGKGSALGTPAAAEPVTPTSKAGSGAPGGTSKGPAEESRVRRHKHSSESPGRDKGKLSRLKPAPPPPPAASAGKAGGKPSQSPSQEAAGEAVLGAKTKATSLVDAVNSDAAKPSQPGEGLKKPVLPATPKPQSAKPSGTPISPAPVPSTLPSASSALAGDQPSSTAFIPLISTRVSLRKTRQPPERIASGAITKGVVLDSTEALCLAISRNSEQMASHSAVLEAGKNLYTFCVSYVDSIQQMRNKFAFREAINKLENNLRELQICPATAGSGPAATQDFSKLLSSVKEISDIVQR
In the case of B1, the “fold increase of the association against untreated control cells” value is reported as no less than 3 fold.
